# In PubChem BioAssay AID2675 (National Center for Advancing Translational Sciences (NCATS), 2010):
# Among all 280,000 compounds or so, about 100 (0.036%) were called active. The shares of active, inactive and inconclusive entries below differ from those in the screen. Calls come from the whole dose curve; as a rule, active = well fitted inhibition curve with a large enough effect in the signal ratio, with a control signal flat (not every such curve was filed as active); inconclusive = small, poorly fitted or top-dose-only effect, or effect the other way, or a change in a side signal; inactive = no such curve, though single readings can be large or run the other way; the % refers to the signal ratio. Where the call is inconclusive, the potency comes from a doubtful curve fit. “Side channel” marks fits to a control or component signal instead of the main read-out.
# Target: Muscleblind-like protein 1 (Homo sapiens) (UniProt Q9NR56)
# Sequence of UniProt Q9NR56 (Q9NR56 whole entry, looked up): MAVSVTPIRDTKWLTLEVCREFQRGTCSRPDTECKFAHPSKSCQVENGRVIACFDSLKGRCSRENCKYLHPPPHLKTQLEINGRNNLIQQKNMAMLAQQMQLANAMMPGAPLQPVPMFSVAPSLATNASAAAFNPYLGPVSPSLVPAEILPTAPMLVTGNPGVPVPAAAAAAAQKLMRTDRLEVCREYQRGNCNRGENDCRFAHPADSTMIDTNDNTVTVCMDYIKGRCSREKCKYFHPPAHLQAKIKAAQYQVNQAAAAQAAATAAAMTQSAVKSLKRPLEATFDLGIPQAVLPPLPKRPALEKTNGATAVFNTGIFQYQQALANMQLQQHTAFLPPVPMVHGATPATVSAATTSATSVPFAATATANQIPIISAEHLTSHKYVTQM
# Assay: qHTS Assay for Inhibitors of MBNL1-poly(CUG) RNA binding
# Details: TR-FRET MBNL1-His/biotin-(CUG)12 binding, 665/545 ratio; activity change, negative = inhibition: at 57.5 µM (top of the series)
# Summary of the method: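 TR-FRET readout: Ex 340 nm, 665/545 nm emission ratio, normalized to buffer-only (basal) and MBNL1-(CUG)12 controls. Complex of MBNL1-His with Biotin-(CUG)12, compounds 92 nM–58 uM, incubated 60 min at room temperature.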
# % is set by controls: 0 for no effect and ±100 for the full control effect; potency is the fitted concentration of half-maximal effect; tags give direction and shape of the fitted curve or compound fluorescence and quenching.
SMILES,Potency,"activity change, negative = inhibition"
O=C(NNC(=S)Nc1ccc(Br)cc1Cl)c1ccco1,"inconclusive: 31.6 µM [fluorescent, side channel, partial curve]",–
CC(O)c1nc2ccccc2n1CCOc1ccccc1 (centres undefined),–,inconclusive: -7.23% [phenotype inactive]
O=C(/C=C/Nc1cccc(C(F)(F)F)c1)c1ccco1,"inconclusive: 11.2 µM [quencher, side channel, partial curve]",–
N=C(N)c1ccc(/C=C/c2ccc(C(=N)N)cc2O)cc1,"inconclusive: 8.91 µM [quencher, side channel, partial curve]",–
Cn1c(-c2ccco2)nc2cc3ccccc3cc21,"inconclusive: 11.2 µM [quencher, side channel, partial curve]",–
CCN(CC)S(=O)(=O)c1cccc(NC(=O)COC(=O)/C=C/c2cccs2)c1,"inconclusive: 10 µM [quencher, side channel, partial curve]",–
Cc1ccc(C(=O)CCNc2ccc(Br)cc2)o1,–,inactive: -1.99%
O=C(N/N=C/c1ccc(Br)s1)c1ccccc1[N+](=O)[O-],"inconclusive: 22.4 µM [quencher, side channel, partial curve]",–
COc1ccc(C2NC(=O)NC3=C2CCc2ccccc23)cc1 (centres undefined),"inconclusive: 20 µM [quencher, side channel, partial curve]",–
COc1ccc2oc(=O)c(-c3nnc(NCc4ccco4)s3)cc2c1,"inconclusive: 3.16 µM [quencher, side channel, full curve]",–
COc1ccc(NC(=O)CC(C)n2ccnc2)cc1 (centres undefined),–,inactive: -3.12%
COc1ccc(C(=O)Oc2ccc3c(C)cc(=O)oc3c2C(C)=O)cc1,"inconclusive: 35.5 µM [fluorescent, side channel, single point]",–
COC(=O)c1cc(C(=O)OCC(=O)Nc2cc(C)on2)cc([N+](=O)[O-])c1,"inconclusive: 15.8 µM [quencher, side channel, partial curve]",–
CSc1c(-c2ccccn2)c(N)nn1C(=O)C1CC1,–,inactive: -14.3%
COc1cc(-c2cc(C(=O)O)c3cc4c(cc3n2)OCCO4)cc(OC)c1OC,"inconclusive: 20 µM [quencher, side channel, partial curve]",–
COc1ccc(N2C(=O)c3ccccc3C2=O)cc1,"inconclusive: 11.2 µM [quencher, partial curve]",–
COc1ccc2c(C)cc(SCC(=O)N3CCOCC3)nc2c1,–,inactive: 7.22%
CC1=C/C(=C(\c2ccc(O)c(C)c2)c2ccccc2S(=O)(=O)O)C=CC1=O,"inconclusive: 15.8 µM [quencher, side channel, partial curve]",–
CC(CC(=O)O)CC(=O)Nc1cc([N+](=O)[O-])ccc1O (centres undefined),"inconclusive: 25.1 µM [quencher, side channel, single point]",–
O=c1c2c3nc4ccccc4nc3n(/N=C/c3cccs3)c2ncn1-c1ccccc1,"inconclusive: 12.6 µM [quencher, side channel, partial curve]",–
COc1ccc(C(C)=O)cc1COC(=O)c1ccc(OCc2c(C)noc2C)cc1,–,inactive: 1.2%
CC(C)CCNC(=O)COc1ccc2c(c1)C(=O)CC(C)(C)O2,–,inactive: 3.06%

SMILES,Potency,"activity change, negative = inhibition"
Cc1nnc(C)n1/N=C/C=C/c1ccccc1,"inconclusive: 22.4 µM [quencher, side channel, single point]",–
C(=N\Nc1ccc2ccccc2n1)/c1ccc2c(c1)OCCO2,–,inactive: 7.57%
CC1(C)CC(O)(CCNCc2ccc3c(c2)OCO3)CCO1 (centres undefined),"inconclusive: 0.794 µM [quencher, side channel, single point]",–
CC(C)CN=CC1=C(O)c2ccccc2C1=O,"inconclusive: 31.6 µM [quencher, side channel, single point]",–
Cc1occc1C(=O)N/N=C/c1ccccc1[N+](=O)[O-],"inconclusive: 28.2 µM [quencher, single point]",–
CNC(=S)N/N=C/c1ccc(N2CCOCC2)s1,"inconclusive: 31.6 µM [quencher, side channel, partial curve]",–
COc1ccc(C(=O)N(CN2CCCC2=O)c2ccccc2OC)cc1OC,–,inactive: -4.37%
CC(=O)Nc1ccc(Nc2nc(-c3sc(C)nc3C)cs2)cc1,"inconclusive: 28.2 µM [quencher, single point]",–
COc1ccc(CC(=O)Nc2ncc([N+](=O)[O-])s2)cc1OC,"inconclusive: 12.6 µM [quencher, side channel, partial curve]",–
O=C(/C=C/c1ccc(Cl)cc1Cl)NCc1ccncc1,"inconclusive: 14.1 µM [quencher, side channel, partial curve]",–
O=C1N(Cc2cccc(Cl)c2)C[C@@H]2C[C@@H](c3ccc4nonc4c3)N3CCC[C@@]123,–,inactive: -10.5%
O=C1c2ccccc2-c2ncnc3c(N4CCOCC4)cc(N4CCOCC4)c1c23,"inconclusive: 3.16 µM [quencher, side channel, full curve, poor fit]",–
COc1ccc(N2CC(O)=C(c3n(C)c4ccccc4[n+]3C)C2=N)cc1,–,inactive: -0.955%
CC(=O)c1cnc(Nc2cccc(Cl)c2Cl)s1,"inconclusive: 3.55 µM [quencher, side channel, full curve, poor fit]",–
COc1ccc(C(=O)NCCc2nnc3ccc(SCC(=O)Nc4ccccc4F)nn23)cc1,–,inactive: 2.99%
O=C(NNc1ccc([N+](=O)[O-])cc1)c1ccco1,"inconclusive: 15.8 µM [quencher, side channel, partial curve]",–
CSc1nnc(-c2cccn(Cc3ccccc3)c2=O)o1,"inconclusive: 17.8 µM [quencher, side channel, partial curve]",–
COc1ccc(/C=N/NC(=O)c2cc[n+]([O-])cc2)cc1OC,"inconclusive: 17.8 µM [quencher, single point]",–
C=CCSc1nnc2c(n1)OC(c1ccco1)Nc1ccccc1-2 (centres undefined),"inconclusive: 39.8 µM [quencher, single point]",–
Nc1c2c(=O)oc(-c3ccccc3)cc2nn1-c1ccccc1,"inconclusive: 5.62 µM [quencher, side channel, partial curve]",–
O=C(Nc1ccc2nc3n(c(=O)c2c1)CCCCC3)c1ccccc1[N+](=O)[O-],"inconclusive: 15.8 µM [quencher, side channel, partial curve]",–
C=CCn1c(SCC(C)=O)nc2scc(-c3ccc(C)o3)c2c1=O,–,inactive: 0.549%

SMILES,Potency,"activity change, negative = inhibition"
Cc1cc2cc(CNC(=O)c3ccc(C)c([N+](=O)[O-])c3)ccc2[nH]1,"inconclusive: 25.1 µM [quencher, side channel, single point]",–
O=C1CCC(=O)N1OCCOc1ccc(Cl)c2ccccc12,"inconclusive: 25.1 µM [quencher, side channel, single point]",–
CCOc1ccc(-n2ccc(=O)c(C(=O)Nc3ccc(S(=O)(=O)Nc4nccs4)cc3)n2)cc1,"inconclusive: 14.1 µM [quencher, side channel, partial curve]",–
N#Cc1c(-c2ccc(Cl)cc2)nc2n(c1=O)CCCS2,"inconclusive: 17.8 µM [quencher, side channel, single point]",–
COc1cc(-c2cc(=O)c3c(O)c(OC)c(OC)c(O)c3o2)ccc1O,"inconclusive: 28.2 µM [quencher, side channel, single point]",–
COc1cc(/C=C2\CCCc3c2nc2ccccc2c3C(=O)O)cc(OC)c1O,–,inactive: 7.6%
CCC1(CC)NC(=O)N(CC(=O)Nc2sc3c(c2C(N)=O)CCC3)C1=O,"inconclusive: 7.08 µM [quencher, side channel, single point]",–
CCNC(=S)N(CCc1cccc(C)c1)Cc1cc2cc(OC)c(OC)cc2[nH]c1=O,–,inactive: -3.23%
O=C(c1ccc2c3c(cccc13)CC2)C1CCCN(Cc2ccc(OCCO)cc2)C1 (centres undefined),"inconclusive: 25.1 µM [quencher, side channel, single point]",–
S=C(NCCc1cccc(Cl)c1)NC1CCCCC1,–,inactive: -3.51%
COc1ccccc1OC(=O)CN1C(=O)c2ccccc2C1=O,"inconclusive: 28.2 µM [quencher, side channel, single point]",–
COc1ccc(-c2nc(O)c3cnccn23)cc1,"inconclusive: 3.55 µM [quencher, side channel, partial curve, poor fit]",–
CNC(=O)c1sccc1Oc1ccc(F)cc1[N+](=O)[O-],"inconclusive: 28.2 µM [quencher, partial curve]",–
Clc1ccc(CN2C3=NCCCN3c3ccccc32)c(Cl)c1,–,inactive: -3.32%
O=C(N/N=C/c1ccc2c(c1)OCO2)/C(=C/c1ccc2c(c1)OCO2)NC(=O)c1ccccc1,"inconclusive: 7.08 µM [quencher, side channel, partial curve]",–
O=C(O)CCCC(=O)NNc1nc(-c2ccccc2)c2cc(Cl)ccc2n1,"inconclusive: 17.8 µM [quencher, side channel, partial curve]",–
COc1ccc(NC2=C(NC(C)=O)C(=O)c3ccccc3C2=O)cc1,"inconclusive: 14.1 µM [quencher, side channel, partial curve]",–
COc1cnc(-c2ccccn2)nc1Oc1ccc(F)cc1F,–,inactive: 4.59%
CC(C)C(=O)N(c1cc2sc(=O)oc2c2ccccc12)S(=O)(=O)c1cccs1,–,inactive: 0.982%
Cc1c(NC(=O)N(C)C)c(=O)n(-c2ccccc2)n1C,"inconclusive: 6.31 µM [quencher, side channel, single point]",–
